# Data as given in PubChem BioAssay AID588855 (National Center for Advancing Translational Sciences (NCATS), 2011).
# Out of some 410,000 compounds screened, about 5,000 (1.2%) were called active. This list was built around the results that the source calls inconclusive (neither active nor inactive); the mix of calls is not that of the screen. Calls come from the whole dose curve; as a rule, active = well fitted inhibition curve with a large enough effect; inconclusive = small, poorly fitted or top-dose-only effect; inactive = no such curve, though single readings can be large or run the other way. Potencies beside an inconclusive call are fits to weak or partial responses and may not hold up.
# Assay: qHTS for Inhibitors of TGF-b; note: nearly all actives have a fitted effect of over 65% in size
# Details: HepG2 CAGA-GFP TGF-b/SMAD3 reporter, GFP fluorescence, 18 h, TGF-beta stimulated, 500 pg/mL final; series mostly up to 46.1 µM; activity, negative = inhibition: at the top concentration
# How it was run: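 TGF-beta reporter screen: HEPG2 CAGA-GFP, 1% FBS, 500 pg/mL TGF-beta final, 18 h; per-cell GFP summed per well; curves fitted and categorized by class.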
# % is set by controls: 0 for no effect and ±100 for the full control effect; potency is the fitted concentration of half-maximal effect; tags give direction and shape of the fitted curve.
Structure (SMILES),Potency,"activity, negative = inhibition"
CCN(CC)CCCN(C(=O)c1ccc(OC)cc1)c1nc(-c2ccc(OC)cc2)cs1,"inconclusive: 35.5 µM [inhibitor, single point]",–
COc1ccc(-c2cn3nc(N4CCC(C(=O)NCc5ccc(F)cc5)CC4)sc3n2)cc1,–,inactive: -22%
CCOC(=O)N1CCN(C(=O)c2ccc3c(=O)n(Cc4ccc(OC)cc4)c(=S)[nH]c3c2)CC1,–,inactive: -10.3%
O=C1c2ccccc2-c2onc3c(N4CCN(CCO)CC4)cc(N4CCN(C(=O)c5ccco5)CC4)c1c23,active: 12.6 µM,–
C/C(N)=C(/C#N)C(=O)COC(=O)C1CCC(C(C)(C)C)CC1 (configuration not stated),"inconclusive: 35.5 µM [inhibitor, single point]",–
CN(C(=O)c1cccc(NC(=O)Cc2ccc(NC(=O)C3CCN(C(=O)CCc4ccccc4)CC3)cc2)c1)C1CCC1,"inconclusive: 25.1 µM [inhibitor, single point]",–
CC1=C(C(=O)N(C)C)CC(CC(=O)NCCCN(C)C)C(=O)N1CCC1=CCCCC1 (configuration not stated),–,inactive: 3.69%
Cc1ccc(NC(=O)c2cn(-c3ccccc3)nc2-c2ccccc2)cc1,"inconclusive: 8.91 µM [inhibitor, partial curve, poor fit]",–
O=C(/C=C/c1c(F)cccc1Cl)c1ccc(O)cc1,"inconclusive: 22.4 µM [inhibitor, single point]",–
COc1cc(OC)c(NC(=O)c2cnn(-c3cccc(Cl)c3C)c2C2CCN(C(=O)OC(C)(C)C)CC2)cc1Cl,"inconclusive: 0.224 µM [inhibitor, full curve, poor fit]",–
NS(=O)(=O)c1ccc(NC(=O)CSc2nc3ccccc3[nH]2)cc1,–,inactive: 13.7%
Cc1ccccc1CCN(CC(=O)NC1CCCCC1)C(=O)c1csnn1,"inconclusive: 3.16 µM [inhibitor, single point]",–
COc1cc(/C=N/NC(N)=S)ccc1OC(=O)c1ccc(C)cc1,–,inactive: -3.62%
Cc1c(CCC(=O)NCCCn2ccnc2)c(=O)oc2c(C)c3occ(C(C)(C)C)c3cc12,"inconclusive: 35.5 µM [inhibitor, single point]",–
CN(Cc1cccnc1)C(=O)c1cc(COc2ccc3c(c2)CCCC3)on1,"inconclusive: 11.2 µM [inhibitor, partial curve]",–
O=C(Nc1nccs1)C1CCN(S(=O)(=O)c2c(Cl)cccc2Cl)CC1,"inconclusive: 35.5 µM [inhibitor, single point]",–
CCC(NC(=O)C1(C)CC1(Br)Br)c1ccc(C)cc1 (configuration not stated),–,inactive: -2.46%
CCCCn1c(O)c(N=NC(=O)c2ccco2)c2ccccc21,"inconclusive: 4.47 µM [inhibitor, full curve, poor fit]",–
CC(Oc1ccc(F)cc1)C(=O)Nc1cccc(S(=O)(=O)N(C)c2ccccc2)c1 (configuration not stated),"inconclusive: 22.4 µM [inhibitor, partial curve, poor fit]",–
CCC(CO)Nc1ccn2nc(-c3cccs3)cc2n1 (configuration not stated),–,inactive: 8.66%
COc1ccccc1NC(=O)c1c(C)cc(C)nc1SCC(=O)Nc1cccc(C)c1,active: 10 µM,–
COc1cccc(-c2cc(C(=O)Nc3ccc([N+](=O)[O-])cn3)c3ccccc3n2)c1,"inconclusive: 11.2 µM [inhibitor, single point]",–
CC(=O)c1nnn(-c2nc(N)nc(N(c3ccccc3)c3ccccc3)n2)c1C,–,inactive: -1.29%

Structure (SMILES),Potency,"activity, negative = inhibition"
NC(c1csc(Nc2ccc(C(F)(F)F)cn2)n1)C1CCCCC1 (configuration not stated),"inconclusive: 20 µM [inhibitor, single point]",–
O=C(CNC(=O)c1ccco1)N=Nc1c(O)n(CCc2ccccc2)c2ccccc12,"inconclusive: 12.6 µM [inhibitor, partial curve, poor fit]",–
Clc1ccc2c(NCc3ccco3)ncnc2c1,–,inactive: -29.8%
CCc1cccc(CC)c1N(COC)C(=O)Cn1c(C)nc2ccccc21,"inconclusive: 8.91 µM [inhibitor, partial curve]",–
O=C(Nc1ccc2c(c1)OCO2)[C@@H]1CCCN1S(=O)(=O)c1cccc2cccnc12,"inconclusive: 10 µM [inhibitor, partial curve]",–
Cc1cc(NCc2cccnc2)nc(N)n1,–,inactive: -1.22%
O=C(CCC(=O)c1ccc(Br)cc1)Nc1ccc(F)cc1,–,inactive: -2.68%
Oc1ccc(-c2nc3ccccc3s2)cc1,"inconclusive: 14.1 µM [inhibitor, single point]",–
COC(=O)c1ccc(C2C(C#N)=C(N)Oc3cc(O)ccc32)cc1 (configuration not stated),–,inactive: 29.6%
Cc1ccc(S(=O)(=O)N2CCCC2CNC(=O)C(=O)NC2CC2)cc1 (configuration not stated),–,inactive: 1.23%
CCc1nn2cc(C(=O)c3cc(Cl)ccc3O)cnc2c1-c1ccc(F)cc1,"inconclusive: 2.82 µM [inhibitor, single point]",–
COc1cccc(NC(=O)CSc2nc3c([nH]c4ccccc43)c(=O)n2-c2cccc(Cl)c2)c1,–,inactive: -3.34%
Cc1ccc(Cn2ccn(Cc3cccc(C(F)(F)F)c3)c(=O)c2=O)cc1,"inconclusive: 2.82 µM [inhibitor, partial curve, poor fit]",–
Cn1c(=O)c2c(nc(CN3CCN(Cc4ccccc4)CC3)n2Cc2ccc(F)cc2)n(C)c1=O,"inconclusive: 22.4 µM [inhibitor, single point]",–
Cn1ncc2c(NCCc3ccccc3)nc(Cl)nc21,"inconclusive: 10 µM [inhibitor, partial curve, poor fit]",–
Cc1cccc(-c2nc3ccc(C(=O)NCCN4CCN(C)CC4)cc3nc2-c2cccc(C)c2)c1,"inconclusive: 25.1 µM [inhibitor, single point]",–
COc1cc(OC)cc(-c2cc3cc4c(cc3cn2)OCO4)c1,"inconclusive: 8.91 µM [inhibitor, partial curve, poor fit]",–
Cc1oc2ccc(O)c(CN3CCOCC3)c2c1C(=O)Nc1ccc(C(C)C)cc1,"inconclusive: 35.5 µM [inhibitor, single point]",–
COc1ccc(C(C(=O)NCc2ccccc2)N(Cc2cccnc2)C(=O)c2snc(C(N)=O)c2N)cc1OC (configuration not stated),–,inactive: 17.7%
COc1ccc([C@H]2C[C@@H](O)[C@H](n3cc(COC(=O)c4ccccc4)nn3)CN2Cc2cccs2)cc1,–,inactive: -18.8%
C=CCn1cc(C(=O)NCCCOCC)c(=O)c2cc(S(=O)(=O)N(CC)CC)ccc21,–,inactive: 7.03%
COc1ccc(S(=O)(=O)N2CCN(c3nn(C)c(=O)n(C)c3=O)CC2)cc1,–,inactive: -18.2%
CCOC(=O)N1CCN(S(=O)(=O)c2ccc(C(=O)Nc3nc4ccccc4s3)cc2)CC1,"inconclusive: 35.5 µM [inhibitor, single point]",–

Structure (SMILES),Potency,"activity, negative = inhibition"
CC1=CC(=O)C2=C(C)CC[C@@H]3[C@H](OC(=O)[C@H]3C)[C@@H]12,"inconclusive: 10 µM [inhibitor, partial curve, poor fit]",–
COc1ccc(NC(=O)CC2Nc3cccc4cccc(c34)NC2=O)cc1 (configuration not stated),"inconclusive: 10 µM [inhibitor, single point]",–
CCN=C1SCC(=O)N1c1ccc(OC)cc1,"inconclusive: 0.708 µM [inhibitor, full curve]",–
O=C(Cn1cnc(S(=O)(=O)N2CCOCC2)c1)Nc1ccc(OC(F)(F)F)cc1,–,inactive: -8.27%
CN(CCc1ccccc1)C(=O)c1cccc(NC(=O)Cc2ccc([N+](=O)[O-])cc2)c1,"inconclusive: 14.1 µM [inhibitor, partial curve, poor fit]",–
Cc1c(C(=O)N(C)CCC#N)oc2ccc(S(=O)(=O)N3CC(C)CC(C)C3)cc12 (configuration not stated),"inconclusive: 17.8 µM [inhibitor, single point]",–
O=C(NCC1CCCO1)c1ccc2c(c1)S(=O)(=O)c1ccccc1C2=O (configuration not stated),–,inactive: 0.482%
N#Cc1c(N)n(-c2cccc(O)c2)c2nc3ccccc3nc12,"inconclusive: 35.5 µM [inhibitor, single point]",–
Cc1ccc(N(CC(=O)NCCSc2nc3ccccc3s2)S(=O)(=O)c2ccccc2)c(C)c1,"inconclusive: 35.5 µM [inhibitor, single point]",–
O=C(COC(=O)c1ccc([N+](=O)[O-])o1)NC1CCCCC1,"inconclusive: 15.8 µM [inhibitor, single point]",–
Cc1nc(NC(=O)c2ccccc2)sc1-c1csc(NCc2ccco2)n1,"inconclusive: 35.5 µM [inhibitor, single point]",–
O=C(Nc1nc2c(s1)COc1ccccc1-2)c1cccs1,"inconclusive: 17.8 µM [inhibitor, single point]",–
COc1ccc(N(CC(=O)Nc2cccc(N(C)S(C)(=O)=O)c2)S(=O)(=O)c2ccccc2)cc1Cl,"inconclusive: 17.8 µM [inhibitor, single point]",–
Cc1n(Cc2ccccc2)c2ccccc2[n+]1Cc1ccccc1,"inconclusive: 3.55 µM [inhibitor, partial curve, poor fit]",–
CN1CCN(S(=O)(=O)c2ccc(NC(=O)c3ccccc3Cl)cc2)CC1,–,inactive: -8.45%
COc1ccc(NC(=O)c2ccco2)cc1NC(=O)C(C)Oc1ccc(Cl)cc1Cl (configuration not stated),"inconclusive: 17.8 µM [inhibitor, partial curve, poor fit]",–
O=C(NCCNC(=O)c1cc(OCC(F)(F)F)ccc1OCC(F)(F)F)Nc1ccc(Cl)cc1,–,inactive: 12.7%
CC(Oc1cccc(Cl)c1)C(=O)Nc1ccccc1N1CCCCC1 (configuration not stated),"inconclusive: 35.5 µM [inhibitor, single point]",–
Cc1ccccc1C(=O)c1cccn1CC(=O)NCc1ccccc1Cl,–,inactive: -15.2%
O=C(Nc1nc(-c2ccc(Cl)s2)cs1)c1cccs1,"inconclusive: 22.4 µM [inhibitor, partial curve, poor fit]",–
O=C1c2cnc3nc(SCc4cccc(Cl)c4)nn3c2CC2c3ccccc3CCN12 (configuration not stated),–,inactive: -8.81%
